Test results: the supplement of paper PMC8728848
Some of the results follow.

Experiments:
Assay in all cases: glycan array binding signal (z-score within array); higher = stronger binding
Details in all cases: glycan notation: IUPAC condensed, linker removed
[1] = biological target: Gal(b1-4)GlcNAc(b1-3)Gal(b1-4)GlcNAc(b1-3)Gal(b1-4)GlcNAc(b1-3)Gal(b1-4)GlcNAc(b1-3)Gal(b1-4)GlcNAc(b1-2)Man(a1-3)[Gal(b1-4)GlcNAc(b1-3)Gal(b1-4)GlcNAc(b1-3)Gal(b1-4)GlcNAc(b1-3)Gal(b1-4)GlcNAc(b1-3)Gal(b1-4)GlcNAc(b1-2)Man(a1-6)]Man(b1-4)GlcNAc(b1-4)[Fuc(a1-6)]GlcNAc
How it was run: (§1)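 Negative Z-scores can be read as non-binding. The Z-score is calculated within each array and then averaged across arrays of one protein sequence at different concentrations or buffers and across linkers. Arrays, 3228 in all, were curated from the Consortium for Functional Glycomics database and kept only where the protein sequence was available.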

[2] = biological target: Gal(b1-4)GlcNAc(b1-3)Gal(b1-4)GlcNAc(b1-3)Gal(b1-4)GlcNAc(b1-3)Gal(b1-4)GlcNAc(b1-3)Gal(b1-4)GlcNAc(b1-2)[Gal(b1-4)GlcNAc(b1-3)Gal(b1-4)GlcNAc(b1-3)Gal(b1-4)GlcNAc(b1-3)Gal(b1-4)GlcNAc(b1-3)Gal(b1-4)GlcNAc(b1-6)]Man(a1-6)[Gal(b1-4)GlcNAc(b1-3)Gal(b1-4)GlcNAc(b1-3)Gal(b1-4)GlcNAc(b1-3)Gal(b1-4)GlcNAc(b1-3)Gal(b1-4)GlcNAc(b1-2)Man(a1-3)]Man(b1-4)GlcNAc(b1-4)[Fuc(a1-6)]GlcNAc
How it was run: as §1

[3] = biological target: Gal(b1-4)GlcNAc(b1-3)Gal(b1-4)GlcNAc(b1-3)Gal(b1-4)GlcNAc(b1-3)Gal(b1-4)GlcNAc(b1-3)Gal(b1-4)GlcNAc(b1-3)Gal(b1-4)GlcNAc(b1-2)Man(a1-3)[Gal(b1-4)GlcNAc(b1-3)Gal(b1-4)GlcNAc(b1-3)Gal(b1-4)GlcNAc(b1-3)Gal(b1-4)GlcNAc(b1-3)Gal(b1-4)GlcNAc(b1-3)Gal(b1-4)GlcNAc(b1-2)Man(a1-6)]Man(b1-4)GlcNAc(b1-4)GlcNAc
How it was run: as §1

[4] = biological target: Gal(b1-4)GlcNAc(b1-3)Gal(b1-4)GlcNAc(b1-3)GalNAc
How it was run: as §1

[5] = biological target: Gal(b1-4)GlcNAc(b1-3)Gal(b1-4)GlcNAc(b1-3)[Gal(b1-4)GlcNAc(b1-3)Gal(b1-4)GlcNAc(b1-6)]GalNAc
How it was run: as §1

[6] = biological target: Gal(b1-4)GlcNAc(b1-3)Gal(b1-4)GlcNAc(b1-6)[Gal(b1-3)]GalNAc
How it was run: as §1

[7] = biological target: Gal(b1-4)GlcNAc(b1-3)Gal(b1-4)[Fuc(a1-3)]GlcNAc(b1-3)Gal(b1-4)[Fuc(a1-3)]GlcNAc
How it was run: as §1

[8] = biological target: Gal(b1-4)GlcNAc(b1-3)GalNAc
How it was run: as §1

[9] = biological target: Gal(b1-4)GlcNAc(b1-3)[Fuc(a1-3)GlcNAc(b1-6)]Gal(b1-4)Glc
How it was run: as §1

[10] = biological target: Gal(b1-4)GlcNAc(b1-3)[Gal(b1-4)GlcNAc(b1-6)]Gal(b1-4)GlcNAc
How it was run: as §1

[11] = biological target: Gal(b1-4)GlcNAc(b1-3)[Gal(b1-4)GlcNAc(b1-6)]GalNAc
How it was run: as §1

[12] = biological target: Gal(b1-4)GlcNAc(b1-3)[GlcNAc(b1-6)]Gal(b1-4)GlcNAc
How it was run: as §1

[13] = biological target: Gal(b1-4)GlcNAc(b1-6)Gal(b1-4)GlcNAc
How it was run: as §1

[14] = biological target: Gal(b1-4)GlcNAc(b1-6)Gal(b1-4)GlcNAc(b1-6)GalNAc
How it was run: as §1

[15] = biological target: Gal(b1-4)GlcNAc(b1-6)GalNAc
How it was run: as §1

[16] = biological target: Gal(b1-4)GlcNAc(b1-6)[Gal(b1-3)]GalNAc
How it was run: as §1

[17] = biological target: Gal(b1-4)GlcNAc(b1-6)[Gal(b1-4)GlcNAc(b1-3)]GalNAc
How it was run: as §1

Gal(b1-4)GlcNAc6P = biological target: Gal(b1-4)GlcNAc6P
How it was run: as §1

Gal(b1-6)Gal = biological target: Gal(b1-6)Gal
How it was run: as §1

Gal3S(b1-3)GalNAc = biological target: Gal3S(b1-3)GalNAc
How it was run: as §1

Gal3S(b1-3)GlcNAc = biological target: Gal3S(b1-3)GlcNAc
How it was run: as §1

[18] = biological target: Gal3S(b1-3)[Fuc(a1-4)]GlcNAc
How it was run: as §1

Gal3S(b1-4)Glc = biological target: Gal3S(b1-4)Glc
How it was run: as §1

Gal3S(b1-4)Glc6S = biological target: Gal3S(b1-4)Glc6S
How it was run: as §1

Gal3S(b1-4)GlcNAc = biological target: Gal3S(b1-4)GlcNAc
How it was run: as §1

Gal3S(b1-4)GlcNAc6S = biological target: Gal3S(b1-4)GlcNAc6S
How it was run: as §1

[19] = biological target: Gal3S(b1-4)[Fuc(a1-3)]Glc6S
How it was run: as §1

[20] = biological target: Gal3S(b1-4)[Fuc(a1-3)]GlcNAc
How it was run: as §1

[21] = biological target: Gal3S(b1-4)[Fuc(a1-3)]GlcNAc6S
How it was run: as §1

Gal3S4S(b1-4)GlcNAc = biological target: Gal3S4S(b1-4)GlcNAc
How it was run: as §1

Gal3S6S(b1-4)GlcNAc = biological target: Gal3S6S(b1-4)GlcNAc
How it was run: as §1

Gal3S6S(b1-4)GlcNAc6S = biological target: Gal3S6S(b1-4)GlcNAc6S
How it was run: as §1

Gal4S(b1-4)GlcNAc = biological target: Gal4S(b1-4)GlcNAc
How it was run: as §1

Gal4S6S(b1-4)GlcNAc = biological target: Gal4S6S(b1-4)GlcNAc
How it was run: as §1

Gal6P(b1-4)GlcNAc = biological target: Gal6P(b1-4)GlcNAc
How it was run: as §1

Gal6S(b1-3)GlcNAc = biological target: Gal6S(b1-3)GlcNAc
How it was run: as §1

Gal6S(b1-3)GlcNAc6S = biological target: Gal6S(b1-3)GlcNAc6S
How it was run: as §1

Gal6S(b1-4)Glc = biological target: Gal6S(b1-4)Glc
How it was run: as §1

Gal6S(b1-4)Glc6S = biological target: Gal6S(b1-4)Glc6S
How it was run: as §1

Gal6S(b1-4)GlcNAc = biological target: Gal6S(b1-4)GlcNAc
How it was run: as §1

Gal6S(b1-4)GlcNAc6S = biological target: Gal6S(b1-4)GlcNAc6S
How it was run: as §1

GalNAc(a1-3)Gal = biological target: GalNAc(a1-3)Gal
How it was run: as §1

GalNAc(a1-3)GalNAc = biological target: GalNAc(a1-3)GalNAc
How it was run: as §1

[22] = biological target: GalNAc(a1-3)GalNAc(a1-3)Gal(a1-4)Gal(b1-4)GlcNAc
How it was run: as §1

[23] = biological target: GalNAc(a1-3)GalNAc(b1-3)Gal(a1-4)Gal(b1-4)Glc
How it was run: as §1

B1: NPA (Narcissus pseudonarcissus), C0HM45 (protein)
chain: DNILYSGETLSPGEFLNNGRYVFIMQEDCNLVLYDVDKPIWATNTGGLDRRCHLSMQSDGNLVVYSPRNNPIWASNTGGENGNYVCVLQKDRNVVIYGTARWATGTNIH
With B1 the “glycan array binding signal (z-score)” value [1] was -0.108, the “glycan array binding signal (z-score)” value [2] was 0.011 and the “glycan array binding signal (z-score)” value [3] was -0.082. The “glycan array binding signal (z-score)” value [4] was -0.052, the “glycan array binding signal (z-score)” value [5] was 0.095 and the “glycan array binding signal (z-score)” value [6] was 0.004. The “glycan array binding signal (z-score)” value [7] was -0.144, the “glycan array binding signal (z-score)” value [8] was -0.144 and the “glycan array binding signal (z-score)” value [9] was -0.132. For the same binder, the “glycan array binding signal (z-score)” value [10] was -0.145, the “glycan array binding signal (z-score)” value [11] was -0.201 and the “glycan array binding signal (z-score)” value [12] was -0.143. The “glycan array binding signal (z-score)” value [13] was -0.153, the “glycan array binding signal (z-score)” value [14] was -0.202 and the “glycan array binding signal (z-score)” value [15] was -0.139. For the same binder, the “glycan array binding signal (z-score)” value [16] was -0.151, the “glycan array binding signal (z-score)” value [17] was -0.141 and the “glycan array binding signal (z-score)” value (Gal(b1-4)GlcNAc6P) was -0.143. The “glycan array binding signal (z-score)” value (Gal(b1-6)Gal) was -0.127, the “glycan array binding signal (z-score)” value (Gal3S(b1-3)GalNAc) was -0.144 and the “glycan array binding signal (z-score)” value (Gal3S(b1-3)GlcNAc) was -0.153. The “glycan array binding signal (z-score)” value [18] was -0.145, the “glycan array binding signal (z-score)” value (Gal3S(b1-4)Glc) was -0.146 and the “glycan array binding signal (z-score)” value (Gal3S(b1-4)Glc6S) was -0.149. The “glycan array binding signal (z-score)” value (Gal3S(b1-4)GlcNAc) was -0.145, the “glycan array binding signal (z-score)” value (Gal3S(b1-4)GlcNAc6S) was -0.205 and the “glycan array binding signal (z-score)” value [19] was -0.125. For the same binder, the “glycan array binding signal (z-score)” value [20] was -0.147, the “glycan array binding signal (z-score)” value [21] was -0.133 and the “glycan array binding signal (z-score)” value (Gal3S4S(b1-4)GlcNAc) was -0.143. The “glycan array binding signal (z-score)” value (Gal3S6S(b1-4)GlcNAc) was -0.153, the “glycan array binding signal (z-score)” value (Gal3S6S(b1-4)GlcNAc6S) was -0.154 and the “glycan array binding signal (z-score)” value (Gal4S(b1-4)GlcNAc) was -0.172. For the same binder, the “glycan array binding signal (z-score)” value (Gal4S6S(b1-4)GlcNAc) was -0.144, the “glycan array binding signal (z-score)” value (Gal6P(b1-4)GlcNAc) was -0.181 and the “glycan array binding signal (z-score)” value (Gal6S(b1-3)GlcNAc) was -0.154. The “glycan array binding signal (z-score)” value (Gal6S(b1-3)GlcNAc6S) was -0.148, the “glycan array binding signal (z-score)” value (Gal6S(b1-4)Glc) was -0.154 and the “glycan array binding signal (z-score)” value (Gal6S(b1-4)Glc6S) was -0.137. For the same binder, the “glycan array binding signal (z-score)” value (Gal6S(b1-4)GlcNAc) was -0.152, the “glycan array binding signal (z-score)” value (Gal6S(b1-4)GlcNAc6S) was -0.154 and the “glycan array binding signal (z-score)” value (GalNAc(a1-3)Gal) was -0.152. The “glycan array binding signal (z-score)” value (GalNAc(a1-3)GalNAc) was -0.158, the “glycan array binding signal (z-score)” value [22] was -0.148 and the “glycan array binding signal (z-score)” value [23] was -0.143.
